Assay results taken from the supplement of paper PMC2702839.
Where a name gives a salt, the structure may show the parent alone. The list shows a part of the results.

tested on: Schistosoma mansoni schistosomula; experiment: phenotypic hit in primary schistosomula screen (any phenotype vs DMSO control) (binary (1 = hit, 0 = no phenotype)); higher = active (phenotype induced); conditions: 1 µM; time (d): 7

Q: With `CC1(C)C(=O)C=C[C@]2(C)[C@H]3CC[C@@]4(C)[C@H](c5ccoc5)OC(=O)[C@H]5O[C@]54[C@]3(C)[C@H](O)C[C@@H]12` [deacetylgedunin] as the compound, how does the phenotypic hit read?
A: Its phenotypic hit is inactive: 0.

Q: For `Nc1ccncc1` [4-Aminopyridine], which phenotypic hit is on record?
A: Its phenotypic hit is inactive: 0.

Q: For `O=C(O)CNCP(=O)(O)O` [glyphosate], which phenotypic hit is on record?
A: Its phenotypic hit is inactive: 0.

Q: With `C[C@]12CC[C@H](O)C[C@@H]1CC[C@@H]1[C@@H]2CC[C@]2(C)[C@@H](O)CC[C@@H]12` [5alpha-androstan-3beta,17beta-diol] as the compound, how does the phenotypic hit read?
A: The phenotypic hit was inactive: 0.

Q: With `CC[C@H](C)[C@H]1O[C@]2(C=C[C@@H]1C)C[C@@H]1C[C@@H](C/C=C(\C)[C@@H](O[C@H]3C[C@H](OC)[C@@H](O[C@H]4C[C@H](OC)[C@@H](O)[C@H](C)O4)[C@H](C)O3)[C@@H](C)/C=C/C=C3\CO[C@@H]4[C@H](O)C(C)=C[C@@H](C(=O)O1)[C@]34O)O2.CO[C@H]1C[C@H](O[C@H]2[C@H](C)O[C@@H](O[C@@H]3/C(C)=C/C[C@@H]4C[C@@H](C[C@]5(C=C[C@H](C)[C@@H](C(C)C)O5)O4)OC(=O)[C@@H]4C=C(C)[C@@H](O)[C@H]5OC/C(=C\C=C\[C@@H]3C)[C@]54O)C[C@@H]2OC)O[C@@H](C)[C@@H]1O` [avermectin b1] as the compound, how does the phenotypic hit read?
A: Its phenotypic hit is inactive: 0.

Q: For `COc1cc([C@@H]2c3cc4c(cc3[C@H](OC(C)=O)[C@H]3COC(=O)[C@H]23)OCO4)cc(OC)c1OC` [podophyllotoxin acetate], which phenotypic hit is on record?
A: The phenotypic hit was inactive: 0.

Q: With `CCCCCCCCCCCCCC(=O)O[C@@H]1[C@@H](C)[C@@]2(O)[C@@H](C=C(CO)C[C@]3(O)C(=O)C(C)=C[C@@H]23)[C@@H]2C(C)(C)[C@]12OC(C)=O` [phorbol myristate acetate] as the compound, how does the phenotypic hit read?
A: The phenotypic hit was inactive: 0.

Q: How did the phenotypic hit turn out when `COc1ccc(C(=O)N2CCCC2=O)cc1` [Aniracetam] was run?
A: Its phenotypic hit is inactive: 0.

Q: How did the phenotypic hit turn out when `COc1nc(NC(C)C)nc(NC(C)C)n1` [prometon] was run?
A: Its phenotypic hit is inactive: 0.

Q: `CCCCOC(=O)c1ccccc1C(=O)OCc1ccccc1` [benzylbutylphthalate] was tested. Which phenotypic hit did it give?
A: The phenotypic hit was inactive: 0.

Q: How did the phenotypic hit turn out when `O=C(O)CCCc1ccc(N(CCCl)CCCl)cc1` [chlorambucil] was run?
A: Its phenotypic hit is inactive: 0.

Q: For `CC[C@@]1(O)C[C@H](O)c2c(cc3c(c2O)C(=O)c2c(O)ccc(O)c2C3=O)[C@H]1C(=O)OC` [rutilantinone], which phenotypic hit is on record?
A: The phenotypic hit was inactive: 0.

Q: Which phenotypic hit does the source give for `CC[C@@H](C)C(=O)O[C@H]1[C@H](O)[C@H]2[C@@H](CN3C[C@@H](C)CC[C@H]3[C@@]2(C)O)[C@@H]2C[C@]34O[C@]5(O)[C@@H](OC(=O)[C@](C)(O)[C@@H](C)O)CC[C@@]3(C)[C@@H]5[C@@H](OC(C)=O)[C@@H](OC(C)=O)[C@H]4[C@@]21O` (stereo in doubt) [protoveratrine b] here?
A: Its phenotypic hit is inactive: 0.

Q: With `CC1=C(O)C(=O)C=C2C1=CC=C1[C@@]2(C)CC[C@@]2(C)[C@@H]3C[C@](C)(C(=O)O)CC[C@]3(C)CC[C@]12C` [celastrol] as the compound, how does the phenotypic hit read?
A: Its phenotypic hit is active: 1.

Q: For `CC(=O)Oc1ccc(/C=C/c2cc(OC(C)=O)cc(OC(C)=O)c2)cc1` [triacetylresveratrol], which phenotypic hit is on record?
A: Its phenotypic hit is inactive: 0.

Q: Which phenotypic hit does the source give for `N#C/C(=C\c1ccc(O)cc1)C(=O)O` [alpha-cyano-4-hydroxycinnamic acid] here?
A: Its phenotypic hit is inactive: 0.

Q: `Oc1cccc2cccnc12` [oxyquinoline] was tested. Which phenotypic hit did it give?
A: The phenotypic hit was inactive: 0.

Q: For `N.N.[Cl][Pt][Cl]` [cisplatin], which phenotypic hit is on record?
A: Its phenotypic hit is inactive: 0.

Q: Which phenotypic hit does the source give for `COc1cc(OC)c2c(c1)OC(c1ccc(OC)c(OC)c1)C(O)C2` (stereo unspecified) [epicatechin, tetramethyl ether] here?
A: Its phenotypic hit is inactive: 0.

Q: Which phenotypic hit does the source give for `CCCN1C[C@H](CSC)C[C@@H]2c3cccc4[nH]cc(c34)C[C@H]21` [Pergolide methanesulfonate] here?
A: Its phenotypic hit is active: 1.

Q: Which phenotypic hit does the source give for `OC1CCCCC1N1CCC(c2ccccc2)CC1` (racemic) [(±)-Vesamicol hydrochloride] here?
A: Its phenotypic hit is inactive: 0.

Q: With `CC(C)N1C(=O)c2ccccc2NS1(=O)=O` [bentazon] as the compound, how does the phenotypic hit read?
A: Its phenotypic hit is inactive: 0.

Q: `c1ccc2c(c1)cc1ccc3cccc4ccc2c1c34` [benzo[a]pyrene] was tested. Which phenotypic hit did it give?
A: The phenotypic hit was inactive: 0.

Q: `CCCCCCCCCc1ccc(O)cc1` [4-nonylphenol] was tested. Which phenotypic hit did it give?
A: Its phenotypic hit is inactive: 0.

Q: How did the phenotypic hit turn out when `COc1ccc2[nH]cc(CCN)c2c1` [mexamine] was run?
A: Its phenotypic hit is inactive: 0.

Q: `CNc1ccc(C(=O)CC(O)CCC(C)C2OC(=O)CC(O)CC(=O)CC(O)CC(O)CC(O)CC(O)CC3(O)CC(O)C(C(=O)OC)C(CC(O[C@@H]4O[C@H](C)[C@@H](O)[C@H](N)[C@@H]4O)/C=C/C=C/C=C/C=C/C=C/C=C/C=C/C2C)O3)cc1.COC(=O)C1C(O)CC2(O)CC(O)CC(O)CC(O)CC(O)CC(=O)CC(O)CC(=O)OC(C(C)CCC(O)CC(=O)c3ccc(N)cc3)C(C)/C=C/C=C/C=C/C=C/C=C/C=C/C=C/C(O[C@@H]3O[C@H](C)[C@@H](O)[C@H](N)[C@@H]3O)CC1O2` (stereo partly specified) [mepartricin] was tested. Which phenotypic hit did it give?
A: The phenotypic hit was inactive: 0.

Q: How did the phenotypic hit turn out when `COC(=O)[C@]1(C)CC[C@]2(C)CC[C@]3(C)C4=CC=C5C(=CC(=O)C(O)=C5C)[C@]4(C)CC[C@@]3(C)[C@@H]2C1` [pristimerin] was run?
A: The phenotypic hit was active: 1.

Q: How did the phenotypic hit turn out when `Cc1ncc(CNC(=O)N(CCCl)N=O)c(N)n1` [nimustine] was run?
A: The phenotypic hit was inactive: 0.

Q: `CN1CCCCC1c1ccc(-c2cccnc2)nc1` (stereo unspecified) [anabasamine hydrochloride] was tested. Which phenotypic hit did it give?
A: The phenotypic hit was inactive: 0.

Q: With `CC1(C)C(=O)C=CC2(C)C3CCC4(C)C(c5ccoc5)CC5OC54C3C(O)CC12` (stereo unspecified) [trichilenone] as the compound, how does the phenotypic hit read?
A: The phenotypic hit was inactive: 0.

Q: How did the phenotypic hit turn out when `CC(C)=CCC[C@]1(C)C=Cc2c(O)c3c(c(CC=C(C)C)c2O1)O[C@]12C(=C[C@@H]4C[C@H]1C(C)(C)O[C@@]2(C/C=C(/C)C(=O)O)C4=O)C3=O` [gambogic acid] was run?
A: The phenotypic hit was active: 1.

Q: With `C#CCOS(=O)OC1CCCCC1Oc1ccc(C(C)(C)C)cc1` (stereo unspecified) [propargite] as the compound, how does the phenotypic hit read?
A: The phenotypic hit was inactive: 0.

Q: For `NCCc1cc(O)c(O)cc1O` [oxidopamine hydrochloride], which phenotypic hit is on record?
A: Its phenotypic hit is inactive: 0.

Q: Which phenotypic hit does the source give for `C[C@]12CCC3C(CC[C@H]4C[C@H](OS(=O)(=O)O)CC[C@]34C)C1CCC2=O` (stereo partly specified) [androsterone sodium sulfate] here?
A: Its phenotypic hit is inactive: 0.

Q: Which phenotypic hit does the source give for `CC[C@@]1(O)C(=O)OCc2c1cc1n(c2=O)Cc2cc3ccccc3nc2-1` [camptothecin] here?
A: The phenotypic hit was inactive: 0.

Q: Which phenotypic hit does the source give for `O=C1C[C@@H]2OCC=C3CN4CC[C@]56c7ccccc7N1[C@H]5[C@H]2[C@H]3C[C@H]46` [strychnine] here?
A: The phenotypic hit was inactive: 0.

Q: With `COc1ccc2c(c1OC)C(=O)OC2[C@H]1c2cc3c(cc2CCN1C)OCO3` (stereo in doubt) [1r,9s-hydrastine] as the compound, how does the phenotypic hit read?
A: The phenotypic hit was inactive: 0.

Q: For `CC(=O)OC1CN2CCC1CC2` (stereo unspecified) [aceclidine hydrochloride], which phenotypic hit is on record?
A: The phenotypic hit was inactive: 0.

Q: For `CC(CCc1ccccc1)NC(C)C(O)c1ccc(O)cc1` (stereo unspecified) [Nylidrin hydrochloride], which phenotypic hit is on record?
A: Its phenotypic hit is inactive: 0.

Q: With `COP(=S)(OC)Oc1ccc([N+](=O)[O-])cc1` [methyl parathione] as the compound, how does the phenotypic hit read?
A: The phenotypic hit was inactive: 0.

Q: For `C=C(C)c1cc2cc(C(C)=O)c(O)cc2o1` [euparin], which phenotypic hit is on record?
A: The phenotypic hit was inactive: 0.

Q: `c1ccc2nc(N3CCNCC3)ccc2c1` [Quipazine dimaleate] was tested. Which phenotypic hit did it give?
A: The phenotypic hit was inactive: 0.

Q: `CC(C)OC(=O)Nc1cccc(Cl)c1` [chlorpropham] was tested. Which phenotypic hit did it give?
A: Its phenotypic hit is inactive: 0.

Q: Which phenotypic hit does the source give for `CN1C[C@H](C(=O)N[C@]2(C)O[C@@]3(O)[C@@H]4CCCN4C(=O)[C@H](Cc4ccccc4)N3C2=O)C[C@@H]2c3cccc4[nH]cc(c34)C[C@H]21` [Dihydroergotamine methanesulfonate] here?
A: Its phenotypic hit is inactive: 0.

Q: Which phenotypic hit does the source give for `COc1ccc(Cc2nccc3cc(OC)c(OC)cc23)cc1OC` [Papaverine hydrochloride] here?
A: Its phenotypic hit is inactive: 0.

Q: With `COc1cc2c(c(OC)c1OC)-c1ccc(=O)c(O)cc1[C@@H](NC(C)=O)CC2` [colchiceine] as the compound, how does the phenotypic hit read?
A: The phenotypic hit was inactive: 0.

Q: How did the phenotypic hit turn out when `CCC1(CC)C(=O)C=CNC1=O` [pyrithyldione] was run?
A: Its phenotypic hit is inactive: 0.

Q: How did the phenotypic hit turn out when `COc1cc2c(cc1OC)[C@@]13CCN4CC5=CCO[C@H]6CC(=O)N2[C@H]1[C@H]6[C@H]5C[C@H]43` [brucine] was run?
A: Its phenotypic hit is inactive: 0.

Q: For `CCOCN(C(=O)CCl)c1c(C)cccc1CC` [acetochlor], which phenotypic hit is on record?
A: The phenotypic hit was inactive: 0.

Q: For `COP(=O)(OC)OC(Br)C(Cl)(Cl)Br` (stereo unspecified) [naled], which phenotypic hit is on record?
A: Its phenotypic hit is inactive: 0.

Q: For `CC(C)(C)NCC(O)c1cc(Cl)c(N)c(Cl)c1` (stereo unspecified) [clenbuterol hydrochloride], which phenotypic hit is on record?
A: Its phenotypic hit is inactive: 0.

Q: `C=C(C)[C@H]1Cc2c(ccc3c2O[C@@H]2COc4cc(OC)c(OC)cc4[C@@H]2C3=O)O1` [rotenone] was tested. Which phenotypic hit did it give?
A: The phenotypic hit was inactive: 0.

Q: With `COC(=O)C1=CCCN(C)C1` [Arecoline hydrobromide] as the compound, how does the phenotypic hit read?
A: Its phenotypic hit is active: 1.

Q: For `NCC(CC(=O)O)c1ccc(Cl)s1` (stereo unspecified) [4-amino-3- (5-chlorothien-2-yl)butanoic acid], which phenotypic hit is on record?
A: Its phenotypic hit is inactive: 0.

Q: With `COc1cc2c(cc1OC)[C@H](C)NCC2` [salsolidine] as the compound, how does the phenotypic hit read?
A: The phenotypic hit was inactive: 0.

Q: `CC1=C2[C@H]3OC(=O)[C@@H](C)[C@@H]3CC[C@@]2(C)C=CC1=O` [santonin] was tested. Which phenotypic hit did it give?
A: Its phenotypic hit is inactive: 0.

Q: For `OCC(O)Cc1ccc2c(c1)OCO2` (stereo unspecified) [safrolglycol], which phenotypic hit is on record?
A: The phenotypic hit was inactive: 0.

Q: How did the phenotypic hit turn out when `CCC(N)C(O)c1ccc(O)c(O)c1` (stereo unspecified) [ethylnorepinephrine hydrochloride] was run?
A: The phenotypic hit was inactive: 0.

Q: `CC(=O)O[C@H]1C[C@H](O[C@H]2[C@@H](O)C[C@H](O[C@H]3[C@@H](O)C[C@H](O[C@H]4CC[C@@]5(C)[C@H](CC[C@@H]6[C@@H]5C[C@@H](O)[C@]5(C)[C@@H](C7=CC(=O)OC7)CC[C@]65O)C4)O[C@@H]3C)O[C@@H]2C)O[C@H](C)[C@H]1O[C@@H]1O[C@H](CO)[C@@H](O)[C@H](O)[C@H]1O` [lanatoside c] was tested. Which phenotypic hit did it give?
A: The phenotypic hit was inactive: 0.

Q: How did the phenotypic hit turn out when `O=C1C=C2C(=CCOC2O)O1` (stereo unspecified) [patulin] was run?
A: Its phenotypic hit is active: 1.

Q: Which phenotypic hit does the source give for `COc1ccc(CCN2CCC(Nc3nc4ccccc4n3Cc3ccc(F)cc3)CC2)cc1` [astemizole] here?
A: The phenotypic hit was inactive: 0.
